Here are results for 109 compounds from PubChem BioAssay AID1240 (Sanford-Burnham Center for Chemical Genomics, 2008).

Screen size: about 50,000 compounds; about 800 (1.6%) showed an effect of 50% or more. The list shows a part of the results.

The assay concerns the target Bcl-2-like protein 10 (Homo sapiens) (UniProt Q9HD36). The assay is described as follows: Phenotype converters, Bcl-B/TR3 peptide binding displacement, primary biochemical FP (AID 1240).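 Also: 0% = Bcl-B with tracer peptide and DMSO and 100% = tracer peptide lacking Bcl-B.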 The following applies: GST-Bcl-B / FITC-TR3 peptide fluorescence polarization; stronger effect = higher value; compound at 3.75 mg/L.
UniProt Q9HD36, sequence (Q9HD36 whole entry, looked up): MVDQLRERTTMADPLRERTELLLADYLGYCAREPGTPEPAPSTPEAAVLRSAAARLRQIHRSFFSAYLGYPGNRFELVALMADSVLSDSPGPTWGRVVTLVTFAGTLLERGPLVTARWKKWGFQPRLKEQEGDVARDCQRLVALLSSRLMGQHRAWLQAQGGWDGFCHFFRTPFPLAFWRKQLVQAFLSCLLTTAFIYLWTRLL
For the compound `Cn1cc(/C=C2/SC(=O)N(c3ccccc3)C2=O)c2ccccc21`, the displacement was found to be 14.8%.

As to `Cc1ccc(C(C)C)c(OCC(O)CN2CCCCCC2)c1` (centres undefined), the displacement was -10.1%.

With `CC(/C=C/c1ccc2c(c1)OCO2)=N/NC(=O)COc1ccc(C)cc1`, the displacement turned out to be 9.6%.

In the case of `O=C(NCCc1cccc(C(F)(F)F)c1)C(=O)Nc1ccccc1F`, the displacement was -14.7%.

For `COc1ccc2c(C)c(Cl)c(=O)oc2c1`, the displacement is 13.4%.

For the compound `COc1ccc(OC)c(NC(=O)COc2c(C)cccc2C)c1`, the displacement is 8.2%.

With `O=C(O)CC(Cc1ccccc1)C(=O)O` (centres undefined), the displacement is -1.9%.

For the compound `COc1cc(C(=O)N/N=C/c2ccc(C)o2)cc(OC)c1OC`, the displacement is -9.2%.

Regarding `CCc1nc(NC(=O)NS(=O)(=O)c2ccccc2C(=O)OC)nc(OC)n1`, the displacement came to 2.3%.

For `COc1ccccc1CC(=O)Nc1cc(Cl)ccc1OC`, the displacement was found to be 11.3%.

On to `C=CCC(CC=C)(NC(=O)/C=C/c1ccccc1)c1ccccc1`, for which the displacement is -12.8%.

Regarding `O=C1C(Cc2ccc(O)cc2)NC(=S)N1c1ccccc1` (centres undefined), the displacement stood at 3.9%.

With `Cc1ccc(S(=O)(=O)NC(=O)N2CCN(c3ccc(F)cc3)CC2)cc1`, the displacement is -1.3%.

Take `O=C(/C=C/c1ccccc1)NC(=S)Nc1ccc(NC(=O)c2ccccc2)cc1`: the displacement was 4.6%.

For `O=C(Nc1ccc(S(=O)(=O)Nc2nccs2)cc1)c1ccc(Cl)cc1`, the displacement came out at 4.5%.

With `CC1=C(C(N)=O)C(c2ccc(C)cc2)N=C(SCc2ccc(F)cc2)N1` (centres undefined), the displacement is -7.8%.

With `COc1ccccc1-c1c(C(F)(F)F)oc2c(CN3CCC(C)CC3)c(O)ccc2c1=O`, the displacement was -3.9%.

Take `C/C(=N\NC(=O)c1cc(C)[nH]n1)c1ccc2ccccc2c1`: the displacement is -8%.

Regarding `COc1ccc(Cl)cc1C(=O)Nc1ccc(OC(F)(F)F)cc1`, the displacement was determined as 0.4%.

Consider `CC(=O)Nc1ccc(C(=O)Nc2ccccc2C(=O)O)cc1`, for which the displacement was determined as 2.6%.

Consider `CC(C)=C1C2CCC1C(C(=O)NCCC(c1ccccc1)c1ccccc1)C2C(=O)O` (centres undefined), for which the displacement was -1.7%.

For `Cc1ccc(C(=O)N/C(=C/c2cccnc2)c2nc3ccccc3[nH]2)cc1`, the displacement came out at 6.5%.

As for `Cc1ccccc1OCC(=O)O/N=C(\N)c1ccc(Br)cc1`, the displacement was found to be 8%.

In the case of `CCN(CC)C(=O)C1=CC2([N+](=O)[O-])CN(CC(=O)O)CC([N+](=O)[O-])(C1)C2` (centres undefined), the displacement was -11.2%.

Consider `O=C(O)Cn1c(O)c(/C=C2\C=Nc3ccccc32)sc1=S`, for which the displacement is -106%.

`CC(=O)Nc1ccc(S(=O)(=O)Nc2ccc(Cl)c(Cl)c2)cc1`: the displacement was -1.1%.

For the compound `CC1=NN(c2cccc(C(=O)O)c2)C(=O)/C1=C\c1ccc(-c2ccc(C)cc2[N+](=O)[O-])o1`, the displacement was determined as 7.5%.

For the compound `CCCC(=O)Nc1ccc(NC(=O)COc2ccc(Cl)cc2Cl)cc1`, the displacement came out at 1.6%.

Turning to `CC(C)(C)c1ccc(-c2n[nH]c(=S)o2)cc1`, the displacement stood at 4.6%.

For `COc1ccccc1/C=C1\SC(N2CCOCC2)=NC1=O`, the displacement worked out at 14%.

Consider `CC(C)CC(=O)N1CCN(Cc2cccc(F)c2)CC1`, for which the displacement is -8.9%.

In the case of `Cc1cccc(CC2SC(=Nc3ccc(Cl)cc3)NC2=O)c1` (centres undefined), the displacement was found to be 1.9%.

Regarding `COc1ccc(-n2c(-c3cccc(C)c3[N+](=O)[O-])n[nH]c2=S)cc1`, the displacement turned out to be 11.3%.

With `COc1ccccc1-c1c(C(F)(F)F)oc2cc(OC(=O)c3ccco3)ccc2c1=O`, the displacement was 14.5%.

For `CCOC(=O)c1c(C)oc2cc(Cl)c(OC)c(OC)c12`, the displacement stood at 27.3%.

On to `CCOc1ccccc1NC(=O)c1c(NC(=O)CCC(=O)O)sc2c1CCCCC2`, for which the displacement was -5.8%.

For `O=C1NC(=O)/C(=C\c2ccc(-c3cccc([N+](=O)[O-])c3)o2)S1`, the displacement worked out at 15%.

Regarding `Nc1nc(-c2ccc(F)cc2F)cs1`, the displacement was -9.5%.

For the compound `CCOc1cc(/C=N/NC(=O)c2ccccn2)cc([N+](=O)[O-])c1O`, the displacement came out at 5.7%.

For the compound `CC(C)COc1ccc(C(=O)N2CCCCCC2)cc1`, the displacement is -2.5%.

For `O=C(Nc1nnc(CCOCCc2nnc(NC(=O)c3cccs3)s2)s1)c1cccs1`, the displacement was -1.6%.

In the case of `Cc1cc(NC(=O)/C=C/c2ccccc2Cl)ccc1Br`, the displacement was found to be 5.1%.

Regarding `O=C(NC(=S)NCc1ccccc1)c1cccc(Cl)c1`, the displacement turned out to be 14.4%.

Take `CCCCSCC(O)COC(C)C` (centres undefined): the displacement was -10%.

For the compound `CCOc1cccc(C(=O)NCc2ccncc2)c1`, the displacement was -8.9%.

Take `O=c1c2c3n(c4cc(Cl)c([N+](=O)[O-])cc4c-2nn1-c1ccccc1)CCC3`: the displacement was determined as 2.6%.

`Cc1ccc(N2NC(=O)/C(=C/c3ccc(-c4ccc5c(c4)COC5=O)o3)C2=O)cc1C`: the displacement was 5.6%.

Regarding `CCc1noc(-c2[nH]c3ccccc3c2C(=O)C(=O)N(C)C)c1C`, the displacement was -3.9%.

As to `CCCOc1ccc(/C=C2\SC(=O)N(Cc3ccccc3)C2=O)cc1OC`, the displacement is 21.9%.

Consider `O=C1c2ccc([N+](=O)[O-])cc2C(=O)N1Cc1ccc(Cl)cc1Cl`, for which the displacement came out at 13.1%.

Consider `Cc1ccc(C(=O)N/C(=C/c2cccs2)c2nc3ccccc3[nH]2)cc1`, for which the displacement turned out to be 47.2%.

As to `O=C1CC(Sc2nc3ccccc3s2)C(=O)N1c1cc(Cl)ccc1Cl` (centres undefined), the displacement was determined as 9%.

As for `O=C(Nc1ccc(F)cc1)Nc1ccc(OC(F)(F)F)cc1`, the displacement was -8.5%.

As for `CNC(=O)/C=C/c1ccc2c(c1)OCO2`, the displacement was 6.9%.

Take `CC1(c2ccccc2)CC(C)(C)N(C(=O)CN2CCCCC2)c2ccccc21` (centres undefined): the displacement is -13.2%.

For `CCc1ccc2oc(-c3ccc(C)c(NC(=O)c4cc(OC)cc(OC)c4)c3)nc2c1`, the displacement turned out to be 13.4%.

With `COc1ccc(OC)c(/C=C/C(=O)c2ccc(Cl)cc2)c1`, the displacement is -5.2%.

With `CCC1=NN2C(=N)/C(=C/c3ccc(-c4cccc(C(=O)O)c4)o3)C(=O)N=C2S1`, the displacement came out at 1.4%.

Regarding `Cc1ccccc1N/C=C\C(=O)c1ccc([N+](=O)[O-])cc1`, the displacement was -5.5%.

`Cc1cc(C)c(NS(=O)(=O)c2ccc3ccccc3c2)c(C)c1`: the displacement was determined as 2.5%.

Turning to `O=C(COc1ccccc1)Nc1ccc(Br)c(Cl)c1`, the displacement was determined as 2.3%.

Regarding `CCOC(=O)c1cc(=O)oc2c(C(=O)OCC)c(C)[nH]c12`, the displacement is -8.7%.

Regarding `COc1cc(C(=O)N/C(=C/c2ccc(Br)cc2)C(=O)NC(C(=O)O)C(C)C)cc(OC)c1OC` (centres undefined), the displacement worked out at 0%.

As for `CC(C(=O)NCc1ccccc1)N1C(=O)c2ccccc2C1=O` (centres undefined), the displacement is -10.1%.

In the case of `COc1ccc(/C=C/C(=O)Nc2ccc([N+](=O)[O-])cc2OC)cc1Br`, the displacement was found to be 15.6%.

For the compound `CCCCOc1cccc(NC(=O)c2cccc([N+](=O)[O-])c2C)c1`, the displacement was 5%.

For `COc1ccc2c(c1)/C(=N\OC(=O)c1ccc(OC)c([N+](=O)[O-])c1)CCC2`, the displacement was -5.3%.

As to `COCCCNC(=O)C(=O)Nc1ccccc1C`, the displacement is 1.2%.

Regarding `C=CCOc1ccc(/C=C2/C(=O)NC(=O)N(c3cccc(C)c3)C2=O)cc1OCC`, the displacement was determined as 126%.

`COc1ccc(-c2cc(C(=O)Nc3ccc(C)c(C)c3)c3ccccc3n2)cc1`: the displacement was determined as 4.8%.

Consider `CCOC(=O)c1c(NC(=O)/C=C/c2ccc(OC)c(OC)c2)sc2c1CC(C)(C)OC2`, for which the displacement was found to be 12.4%.

Turning to `Cc1ccc(C(=O)NCC(=O)c2ccc(Br)cc2)cc1`, the displacement is 4.5%.

On to `COc1ccc(C(=O)Nc2sc3c(c2C(N)=O)CCCC3)cc1`, for which the displacement amounted to 16.7%.

In the case of `Cc1cc(NC(=O)c2ccc(Cl)cc2Cl)no1`, the displacement was -2.3%.

As for `Cc1ccc(OCC(=O)Nc2sc3c(c2C(N)=O)CCC(C)C3)c(C)c1` (centres undefined), the displacement is 10.8%.

`CCOc1cc(/C=C2\SC(=S)N(NC(=O)c3ccc([N+](=O)[O-])cc3)C2=O)ccc1O`: the displacement was found to be 11.1%.

With `Cc1cc(C)c2nc(Nc3ncc(O)[nH]3)nc(C)c2c1`, the displacement was -12.7%.

In the case of `Cn1c(=O)c(C2=NS(=O)(=O)c3ccccc3N2)c(O)c2ccccc21`, the displacement was determined as 2.1%.

With `OCCNCCCCOc1ccccc1Cl`, the displacement is 8.5%.

With `O=C(Nc1ccc2c(c1)oc1ccccc12)c1ccco1`, the displacement was found to be 7.9%.

As for `CC(C(=O)O)n1nnc(-c2ccccc2)n1` (centres undefined), the displacement stood at 2.5%.

For the compound `CCOC(=O)c1sc(NC(=O)c2ccc(Cl)cc2[N+](=O)[O-])nc1C`, the displacement was -5.1%.

`Cc1c(C(c2cc([N+](=O)[O-])cc([N+](=O)[O-])c2O)c2c(C)n(C)n(-c3ccccc3)c2=O)c(=O)n(-c2ccccc2)n1C`: the displacement is -5.3%.

Turning to `c1ccc(-c2nc3ccccc3nc2-c2cccs2)cc1`, the displacement is 13.4%.

`CCC1CCCCN1C(=O)Cn1nc([N+](=O)[O-])c(Cl)c1C` (centres undefined): the displacement was -10%.

Take `CCCN(CCC)C(=O)c1ccc(C(=O)c2cc(OC)ccc2OC)cc1`: the displacement is -18.5%.

`CCOC(=O)c1c(C)[nH]c(C=Nc2ccccc2)c1O`: the displacement is 4.5%.

In the case of `COC(=O)c1ccccc1NC(=O)Cc1ccc(OC)c(OC)c1`, the displacement came out at 26.1%.

For `O=C1/C(=C\c2cc(Cl)ccc2O)SC(=S)N1Cc1ccccc1`, the displacement was -5.4%.

`CC/C(C)=N/Oc1nc(N)nc(N(C)C)n1`: the displacement is -2.2%.

With `COc1ccc(NC(=O)CCCOc2ccccc2)c([N+](=O)[O-])c1`, the displacement was -5%.

On to `COc1ccc(O)c(CN2CCN(Cc3cccc([N+](=O)[O-])c3)CC2)c1`, for which the displacement stood at 13.7%.

With `COc1cccc(OCCNc2cc(N3CCCC3)ccc2[N+](=O)[O-])c1`, the displacement came to 0.6%.

For the compound `Cc1ccccc1/C=N/N1CCN(c2ccccc2)CC1`, the displacement was -8.7%.

Turning to `O=C(O)CCCN1C(=O)C(=O)/C(=C(/O)c2ccccc2)C1c1ccc(F)cc1` (centres undefined), the displacement was determined as 1.1%.

Regarding `Nc1cccc(-n2nncc2-c2ccccc2)c1`, the displacement amounted to 8.5%.

On to `CCOC(=O)C1=C(C)NC(=O)CC1c1ccccc1F` (centres undefined), for which the displacement stood at 0.1%.

For the compound `O=C(Nc1c(Cl)cccc1Cl)c1ccccc1[N+](=O)[O-]`, the displacement came to 1.8%.

For `COc1cc(OC)c(OC)cc1CN1CCN(C2CCCCC2OC)CC1` (centres undefined), the displacement was -10.6%.

For `CCCCOc1ccccc1NC(=O)C(c1ccccc1)c1ccccc1`, the displacement is -16.9%.

Consider `O=C(COc1ccc2ccccc2c1)Nc1cccc(I)c1`, for which the displacement is -8.2%.

Take `CCOC(=O)C(CCOCCOc1ccc(Cl)cc1C)C(=O)OCC`: the displacement was 11.2%.

On to `O=C(Cc1nnn(-c2ccccc2)n1)c1cccc([N+](=O)[O-])c1`, for which the displacement is 3.1%.

On to `C/C(=N/Nc1ccc([N+](=O)[O-])cc1)c1ccc2c(c1)C1C=CCC1C(c1cccc([N+](=O)[O-])c1)N2` (centres undefined), for which the displacement was -14.4%.

On to `O=c1c2ccccc2nc(/C=C/c2cccc([N+](=O)[O-])c2)n1-c1cccc2ccccc12`, for which the displacement was 5%.

As to `Cc1ccc(NC(=O)c2ccc([N+](=O)[O-])cc2)c(C(=O)c2ccccc2)c1`, the displacement was 11.7%.

As to `CCN1C(=O)/C(=C/c2ccc(NC(=O)c3ccc4ncccc4c3)cc2)SC1=S`, the displacement was 37.7%.

Take `O=[N+]([O-])c1ccc(C2Nc3c(cccc3C(F)(F)F)C3C=CCC32)cc1` (centres undefined): the displacement came to 16.8%.

Turning to `COc1ccc(C(N)=O)cc1S(=O)(=O)N1CCOCC1`, the displacement was 7.5%.
